Experimental data: article PMC10761038
No constants are given. Whether binding was seen depends on the method and setting. In cells and extracts the contact can be indirect. Some binding calls cover weakened binding; strength is not graded here.

Amino acid sequences for entries named in this document (tags omitted).
UniProt Q14160: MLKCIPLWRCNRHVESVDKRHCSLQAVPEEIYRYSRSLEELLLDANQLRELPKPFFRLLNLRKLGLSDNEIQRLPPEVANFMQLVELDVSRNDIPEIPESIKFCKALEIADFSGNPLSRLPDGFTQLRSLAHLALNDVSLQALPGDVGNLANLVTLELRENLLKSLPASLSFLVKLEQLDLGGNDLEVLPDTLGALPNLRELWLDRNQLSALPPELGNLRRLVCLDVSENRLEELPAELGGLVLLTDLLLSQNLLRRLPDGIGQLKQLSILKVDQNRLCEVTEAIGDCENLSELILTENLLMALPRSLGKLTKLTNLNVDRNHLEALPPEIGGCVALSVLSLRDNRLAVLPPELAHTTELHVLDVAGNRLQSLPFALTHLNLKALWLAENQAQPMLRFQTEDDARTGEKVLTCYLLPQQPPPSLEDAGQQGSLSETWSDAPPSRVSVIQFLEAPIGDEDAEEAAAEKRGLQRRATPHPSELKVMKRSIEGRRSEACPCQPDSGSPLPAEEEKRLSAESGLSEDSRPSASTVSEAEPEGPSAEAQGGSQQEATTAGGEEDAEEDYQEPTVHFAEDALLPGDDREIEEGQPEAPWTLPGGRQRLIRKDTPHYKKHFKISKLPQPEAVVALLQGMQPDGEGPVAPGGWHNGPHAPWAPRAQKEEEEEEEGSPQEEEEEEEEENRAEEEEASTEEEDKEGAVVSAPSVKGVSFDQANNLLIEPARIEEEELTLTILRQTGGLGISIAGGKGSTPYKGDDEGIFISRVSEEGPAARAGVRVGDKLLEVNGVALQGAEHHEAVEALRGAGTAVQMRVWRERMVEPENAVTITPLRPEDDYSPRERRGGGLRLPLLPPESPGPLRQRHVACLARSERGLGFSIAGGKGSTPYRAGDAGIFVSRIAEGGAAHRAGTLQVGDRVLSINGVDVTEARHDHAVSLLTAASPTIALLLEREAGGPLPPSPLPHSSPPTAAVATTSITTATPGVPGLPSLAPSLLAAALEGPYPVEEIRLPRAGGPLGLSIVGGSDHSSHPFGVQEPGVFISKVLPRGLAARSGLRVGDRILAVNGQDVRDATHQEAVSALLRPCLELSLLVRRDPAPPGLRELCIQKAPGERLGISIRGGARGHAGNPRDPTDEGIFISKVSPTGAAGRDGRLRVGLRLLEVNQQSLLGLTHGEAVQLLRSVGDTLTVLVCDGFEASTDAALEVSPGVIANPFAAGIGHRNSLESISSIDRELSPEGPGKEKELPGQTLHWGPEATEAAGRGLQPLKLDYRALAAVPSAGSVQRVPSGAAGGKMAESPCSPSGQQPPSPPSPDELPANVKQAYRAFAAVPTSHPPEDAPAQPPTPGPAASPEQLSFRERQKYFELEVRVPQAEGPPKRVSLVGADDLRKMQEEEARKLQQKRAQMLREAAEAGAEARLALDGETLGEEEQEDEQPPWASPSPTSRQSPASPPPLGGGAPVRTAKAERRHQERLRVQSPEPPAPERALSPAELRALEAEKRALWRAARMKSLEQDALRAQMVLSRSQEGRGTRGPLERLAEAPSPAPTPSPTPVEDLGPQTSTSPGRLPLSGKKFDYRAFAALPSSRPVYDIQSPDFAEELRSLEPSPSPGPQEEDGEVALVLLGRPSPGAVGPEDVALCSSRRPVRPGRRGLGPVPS
UniProt P35222: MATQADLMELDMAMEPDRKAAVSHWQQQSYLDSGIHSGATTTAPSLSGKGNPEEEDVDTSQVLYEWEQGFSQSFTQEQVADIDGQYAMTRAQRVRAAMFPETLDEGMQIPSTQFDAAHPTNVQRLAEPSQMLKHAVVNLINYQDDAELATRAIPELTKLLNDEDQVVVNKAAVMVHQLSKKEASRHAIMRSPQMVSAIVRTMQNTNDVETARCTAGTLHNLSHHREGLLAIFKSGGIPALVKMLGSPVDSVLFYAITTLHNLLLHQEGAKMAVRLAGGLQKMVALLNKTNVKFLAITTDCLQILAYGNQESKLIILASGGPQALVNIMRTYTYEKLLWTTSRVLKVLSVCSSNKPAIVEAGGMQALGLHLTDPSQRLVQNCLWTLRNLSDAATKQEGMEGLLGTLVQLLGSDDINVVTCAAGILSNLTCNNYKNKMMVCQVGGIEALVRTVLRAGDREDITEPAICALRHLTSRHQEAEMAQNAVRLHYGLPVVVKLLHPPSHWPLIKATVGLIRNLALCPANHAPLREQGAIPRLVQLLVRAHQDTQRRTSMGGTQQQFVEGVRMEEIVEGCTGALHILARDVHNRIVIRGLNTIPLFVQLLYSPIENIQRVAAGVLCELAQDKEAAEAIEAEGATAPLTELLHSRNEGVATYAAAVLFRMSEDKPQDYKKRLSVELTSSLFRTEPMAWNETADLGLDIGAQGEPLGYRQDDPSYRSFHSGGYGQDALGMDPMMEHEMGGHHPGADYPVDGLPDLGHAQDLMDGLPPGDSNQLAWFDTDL
UniProt P35221: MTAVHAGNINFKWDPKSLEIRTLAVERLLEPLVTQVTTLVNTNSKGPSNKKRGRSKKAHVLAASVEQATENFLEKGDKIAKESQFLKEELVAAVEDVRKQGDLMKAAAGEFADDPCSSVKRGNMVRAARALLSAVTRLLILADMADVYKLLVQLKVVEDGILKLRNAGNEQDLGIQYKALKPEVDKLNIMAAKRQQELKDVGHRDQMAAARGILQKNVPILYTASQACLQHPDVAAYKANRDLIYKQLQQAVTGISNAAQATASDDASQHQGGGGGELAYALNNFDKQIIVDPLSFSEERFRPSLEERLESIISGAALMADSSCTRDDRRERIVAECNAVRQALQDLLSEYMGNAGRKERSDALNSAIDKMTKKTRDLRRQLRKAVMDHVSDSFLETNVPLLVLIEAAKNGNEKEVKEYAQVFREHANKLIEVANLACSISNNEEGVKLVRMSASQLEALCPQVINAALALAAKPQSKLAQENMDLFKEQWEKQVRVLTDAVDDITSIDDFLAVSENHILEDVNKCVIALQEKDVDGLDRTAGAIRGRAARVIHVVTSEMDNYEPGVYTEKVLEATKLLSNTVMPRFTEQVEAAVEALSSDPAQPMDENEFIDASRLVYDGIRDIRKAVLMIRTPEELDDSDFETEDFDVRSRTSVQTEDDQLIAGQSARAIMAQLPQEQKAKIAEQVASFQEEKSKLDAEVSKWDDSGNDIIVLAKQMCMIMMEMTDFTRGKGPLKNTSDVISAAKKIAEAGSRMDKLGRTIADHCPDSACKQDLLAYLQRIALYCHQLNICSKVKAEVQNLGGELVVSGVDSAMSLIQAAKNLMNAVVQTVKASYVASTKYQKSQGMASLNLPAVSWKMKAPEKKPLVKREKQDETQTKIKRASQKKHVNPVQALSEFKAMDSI

Columns and labels:
Test in all cases: co-IP; A549 cell lysates (parental, stably expressing GFP-Scrib or Neon-Lgl1 forms, or tet-shLgl1 without Dox) in NP-40 buffer (20 mM Tris pH 8, 150-200 mM NaCl, 0.5 mM EDTA, 1% NP-40, 1 mM DTT, 5% glycerol); antibody 2 h at 4°C, protein A/G beads, three washes, Western blot; IgG as negative …
[1] = molecular target: Scribble (endogenous) (human (endogenous in A549)) (UniProt Q14160)
Neon-Lgl1-WT = molecular target: T1, Neon-Lgl1-WT (UniProt Q80Y17)
T1 sequence: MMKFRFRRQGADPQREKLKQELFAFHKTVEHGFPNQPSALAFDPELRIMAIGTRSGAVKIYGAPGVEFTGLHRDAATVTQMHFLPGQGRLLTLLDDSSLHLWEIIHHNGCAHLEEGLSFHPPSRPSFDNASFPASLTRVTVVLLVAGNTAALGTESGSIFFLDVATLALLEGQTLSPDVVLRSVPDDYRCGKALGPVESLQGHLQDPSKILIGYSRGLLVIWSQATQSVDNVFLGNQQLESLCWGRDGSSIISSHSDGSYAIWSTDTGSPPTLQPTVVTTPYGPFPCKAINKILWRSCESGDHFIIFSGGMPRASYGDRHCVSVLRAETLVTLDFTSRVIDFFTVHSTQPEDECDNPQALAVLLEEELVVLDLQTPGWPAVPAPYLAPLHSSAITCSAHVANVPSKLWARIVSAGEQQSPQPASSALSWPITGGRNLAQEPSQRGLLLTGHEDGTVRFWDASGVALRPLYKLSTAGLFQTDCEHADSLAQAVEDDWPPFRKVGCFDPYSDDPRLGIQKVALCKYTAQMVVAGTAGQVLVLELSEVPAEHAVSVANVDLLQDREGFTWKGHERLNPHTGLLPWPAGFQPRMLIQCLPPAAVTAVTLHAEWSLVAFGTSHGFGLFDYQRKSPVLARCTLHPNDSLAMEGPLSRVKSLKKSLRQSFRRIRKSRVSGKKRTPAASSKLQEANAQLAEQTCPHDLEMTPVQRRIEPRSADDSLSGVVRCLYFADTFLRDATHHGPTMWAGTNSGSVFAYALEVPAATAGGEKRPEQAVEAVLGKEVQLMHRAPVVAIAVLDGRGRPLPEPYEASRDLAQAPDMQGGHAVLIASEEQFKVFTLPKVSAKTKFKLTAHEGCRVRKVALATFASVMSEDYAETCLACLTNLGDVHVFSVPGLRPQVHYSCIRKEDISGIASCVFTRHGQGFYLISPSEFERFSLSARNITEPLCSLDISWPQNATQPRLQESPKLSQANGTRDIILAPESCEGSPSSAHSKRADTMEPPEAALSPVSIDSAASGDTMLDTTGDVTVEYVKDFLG

[2] = molecular target: β-catenin (endogenous) (human (endogenous in A549)) (UniProt P35222)
[3] = molecular target: T2, Lgl1 (endogenous) (human (endogenous in A549)) (UniProt Q15334)
T2 sequence: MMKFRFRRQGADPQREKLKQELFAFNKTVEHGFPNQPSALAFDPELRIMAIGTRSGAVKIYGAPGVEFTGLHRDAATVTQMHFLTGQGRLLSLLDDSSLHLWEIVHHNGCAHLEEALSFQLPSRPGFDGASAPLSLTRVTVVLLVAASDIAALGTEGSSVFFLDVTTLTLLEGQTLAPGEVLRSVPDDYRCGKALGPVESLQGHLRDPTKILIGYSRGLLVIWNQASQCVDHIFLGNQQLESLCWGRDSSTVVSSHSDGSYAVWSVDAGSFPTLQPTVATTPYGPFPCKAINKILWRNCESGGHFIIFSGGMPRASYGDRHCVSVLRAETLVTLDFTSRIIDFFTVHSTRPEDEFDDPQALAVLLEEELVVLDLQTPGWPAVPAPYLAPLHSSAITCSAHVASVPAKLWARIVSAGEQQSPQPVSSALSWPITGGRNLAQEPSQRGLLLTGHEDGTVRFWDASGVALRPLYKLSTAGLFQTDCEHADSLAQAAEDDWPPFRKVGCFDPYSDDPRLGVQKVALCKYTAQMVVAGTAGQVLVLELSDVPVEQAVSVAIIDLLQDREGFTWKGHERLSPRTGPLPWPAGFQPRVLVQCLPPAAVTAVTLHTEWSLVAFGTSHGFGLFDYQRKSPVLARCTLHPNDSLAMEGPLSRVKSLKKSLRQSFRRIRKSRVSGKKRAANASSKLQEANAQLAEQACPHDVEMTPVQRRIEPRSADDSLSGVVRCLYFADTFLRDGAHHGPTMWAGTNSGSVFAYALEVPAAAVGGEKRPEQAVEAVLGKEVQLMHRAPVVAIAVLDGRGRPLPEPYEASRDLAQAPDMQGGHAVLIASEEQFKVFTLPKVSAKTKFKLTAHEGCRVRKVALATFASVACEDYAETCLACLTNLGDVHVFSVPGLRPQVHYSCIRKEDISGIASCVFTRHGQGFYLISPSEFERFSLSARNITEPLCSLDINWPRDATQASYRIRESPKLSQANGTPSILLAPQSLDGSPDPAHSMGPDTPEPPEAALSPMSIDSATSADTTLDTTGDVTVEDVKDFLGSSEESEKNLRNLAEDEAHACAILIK

Measured: binding

α-catenin (endogenous) (from UniProt P35221 1-906)
binds: [1] | Neon-Lgl1-WT | [2] | [3]
